Data on one substance can be found in article PMC10611586.

No constants are given. Whether binding was seen depends on the method and setting.

For this experiment, the target named is HA–Fubi-VS (C57L, from GST–3C-GS-HA–Fubi^1–73) (human) (UniProt P62861). In words: activity-based probe labelling (covalent conjugate), western blot; HEK293 lysate (endogenous or overexpressed Flag-tagged full-length USP) at 2 mg/ml incubated with 10 µM probe for 1 h at 37 °C; SDS-PAGE and western blotting; only the target purified.

Turning to “Flag–USP7, full length (from UniProt Q93009 1-1102) (enzyme)”, the binding result is recorded as “no binding (tested: 10 µM probe)”.
